According to patent publication US20230312722A1 (NONA BIOSCIENCES SUZHOU, published 2023):

Assays:
[1] = target: T1, B7-H3/CD276 Protein, Human, Recombinant (ECD, Fc Tag) (Sino Biological 11188-H02H) (human, UniProt Q5ZPR3 29-466); assay: ELISA, plate coated with 1 µg/mL B7 family protein
T1 construct: extracellular domain; Bought protein
T1 sequence (looked up): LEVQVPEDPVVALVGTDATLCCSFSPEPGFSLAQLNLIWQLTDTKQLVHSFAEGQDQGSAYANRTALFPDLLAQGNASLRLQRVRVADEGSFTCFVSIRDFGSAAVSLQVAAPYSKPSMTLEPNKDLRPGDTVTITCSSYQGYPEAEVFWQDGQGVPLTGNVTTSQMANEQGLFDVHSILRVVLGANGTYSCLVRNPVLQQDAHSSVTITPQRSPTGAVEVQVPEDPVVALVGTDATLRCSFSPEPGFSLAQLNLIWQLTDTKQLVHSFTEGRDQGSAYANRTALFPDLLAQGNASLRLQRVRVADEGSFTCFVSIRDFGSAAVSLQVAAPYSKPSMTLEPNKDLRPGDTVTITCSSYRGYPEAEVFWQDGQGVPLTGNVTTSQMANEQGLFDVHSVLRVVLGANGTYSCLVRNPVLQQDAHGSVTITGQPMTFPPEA
Procedure: The proteins of the B7 family (see Table 9-1 for details) were each diluted to 1 μg/mL with PBS, added to a 96-well plate (Corning, #9018) at 100 μL per well, and incubated overnight at 4° C. After the liquid was discarded, the plate was washed 3 times with PBST buffer (pH 7.4, containing 0.05% tween-20), and 250 μL of 2% BSA blocking buffer was added. The plate was incubated at 37° C. for 1 hour. The blocking buffer was discarded, and the plate was washed 3 times with PBST buffer (pH 7.4, containing 0.05% Tween-20). The test antigen-binding protein was diluted to 2 concentrations: 10 nM and 1 nM, and added at 100 μL per well. The plate was incubated at 37° C. for 1 hour. An isotype antibody was taken as a control. After the plate was washed 3 times with PBST buffer (pH 7.4, containing 0.05% Tween-20), the plate was added with a 5000-fold diluted goat anti-human F(ab′)₂ HRP secondary antibody (Jackson ImmunoResearch, 109-035-097), and incubated at 37° C. away from light for 1 hour. After the plate was washed 3 times with PBST buffer (pH 7.4, containing 0.05% Tween-20), TMB (Biopanda, #TMB-S-003) was added at 100 μL/well. The plate was left away from light at room temperature for about 30 minutes. The reactions were terminated by adding 50 μL of stop buffer (BBI life sciences, #E661006-0200) to each well, and the absorbance values at 450 nm (OD450) was measured using a microplate reader (PerkinElemer, #Enspire).

[2] = target: T2, B7-H4 (Acro Biosystems, #B74-H82E2) (UniProt Q7Z7D3 29-258); assay: BLI epitope competition; 1st Ab = row; competitor (2nd Ab) PR002421; inhibition of the 2nd Ab signal
T2 construct: Bought protein; also called B7-H4 captured on SA sensor
T2 sequence (looked up): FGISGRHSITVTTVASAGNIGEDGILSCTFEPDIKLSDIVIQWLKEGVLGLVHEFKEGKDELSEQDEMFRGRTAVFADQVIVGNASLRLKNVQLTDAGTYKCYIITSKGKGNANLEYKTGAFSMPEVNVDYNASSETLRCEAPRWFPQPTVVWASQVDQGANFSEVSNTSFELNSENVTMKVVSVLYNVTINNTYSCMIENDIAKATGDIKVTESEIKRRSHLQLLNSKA
Procedure: (§1) Step one, acquisition of 100% signal of antibodies: B7-H4 (Acro Biosystems, #B74-H82E2-200 μg) was captured at a capture height of 0.25 nm using an SA sensor (Fortebio, #18-5019). The sensor was equilibrated in a buffer for 120 s and then immersed in each antibody diluted to 100 nM for 240 s, and the final signal of the antibody binding to B7-H4 was recorded as the 100% signal of the antibody. Step two, epitope competition experiment: B7-H4 was captured using an SA sensor at a capture height of 0.25 nm. The sensor was immersed in a primary antibody (at a concentration of 100 nM) for 240 s, and then the SA sensor was immersed in a mixture of the primary and secondary antibodies (both at a final concentration of 100 nM) for 240 s, and the difference in signals after immersion of the sensor in the antibody mixture was recorded as the signal of the antibody as the secondary antibody. The inhibition rate was calculated according to the following formula: […]

[3] = target: T2, B7-H4 (Acro Biosystems, #B74-H82E2); assay: BLI epitope competition; 1st Ab = row; competitor (2nd Ab) Control antibody 1; inhibition of the 2nd Ab signal
Procedure: as §1

[4] = target: T2, B7-H4 (Acro Biosystems, #B74-H82E2); assay: BLI epitope competition; 1st Ab = row; competitor (2nd Ab) Control antibody 2; inhibition of the 2nd Ab signal
Procedure: as §1

B1: PR002421 (antibody, human IgG1, kappa)
heavy: QVQLVQSGAEVKKPGSSMRVSCKASEDTFSSYAISWVRQAPGQGLEWMGGTAPIFGTTNYAQKFQGRVTITADKSTSTAYMELSSLRSEDTAVYYCARGGPYFDYWGQGTLVTVSSASTKGPSVFPLAPSSKSTSGGTAALGCLVKDYFPEPVTVSWNSGALTSGVHTFPAVLQSSGLYSLSSVVTVPSSSLGTQTYICNVNHKPSNTKVDKKV[human IgG1 Fc with changes not written out]
light: EIVMTQSPASLSVSPGERATLSCRASQSVSSNLAWYQQKPGQAPRLLIYGASTRATGIPARVSGGGSGTEFTLTISSLQSEDFAVYYCQQYKNWPFTFGPGTKLEIKRTVAAPSVFIFPPSDEQLKSGTASVVCLLNNFYPREAKVQWKVDNALQSGNSQESVTEQDSKDSTYSLSSTLTLSKADYEKHKVYACEVTHQGLSSPVTKSFNRGEC
notes: PTM variant/DE mutant of PR002037 (L: C87Y; Fc S239D, I332E), human IgG1; also called RP002421
B1 was tested, and the binding result [1] was “no binding (tested: 10 nM)”, the “Competitive inhibition rate (%)” value [2] was 94.8% and the “Competitive inhibition rate (%)” value [3] was 10.8%. For the same binder, the “Competitive inhibition rate (%)” value [4] was 10.6%.
